According to ChEMBL document CHEMBL5247649, “Comparative Efficacy and Selectivity of Pharmacological Inhibitors of DYRK and CLK Protein Kinases” (J Med Chem, 2023):

What was measured:
[1] = biological target: T1, Dual specificity tyrosine-phosphorylation-regulated kinase 1B (Homo sapiens, UniProt Q9Y463); experiment: biochemical; assay type: cell-based, Sf9
[2] = biological target: T1, Dual specificity tyrosine-phosphorylation-regulated kinase 1B; experiment: biochemical; assay type: cell-based, Sf9; remark: listed apart in the source
in vitro = details: mouse, ht-22

T1 sequence (Q9Y463 whole entry): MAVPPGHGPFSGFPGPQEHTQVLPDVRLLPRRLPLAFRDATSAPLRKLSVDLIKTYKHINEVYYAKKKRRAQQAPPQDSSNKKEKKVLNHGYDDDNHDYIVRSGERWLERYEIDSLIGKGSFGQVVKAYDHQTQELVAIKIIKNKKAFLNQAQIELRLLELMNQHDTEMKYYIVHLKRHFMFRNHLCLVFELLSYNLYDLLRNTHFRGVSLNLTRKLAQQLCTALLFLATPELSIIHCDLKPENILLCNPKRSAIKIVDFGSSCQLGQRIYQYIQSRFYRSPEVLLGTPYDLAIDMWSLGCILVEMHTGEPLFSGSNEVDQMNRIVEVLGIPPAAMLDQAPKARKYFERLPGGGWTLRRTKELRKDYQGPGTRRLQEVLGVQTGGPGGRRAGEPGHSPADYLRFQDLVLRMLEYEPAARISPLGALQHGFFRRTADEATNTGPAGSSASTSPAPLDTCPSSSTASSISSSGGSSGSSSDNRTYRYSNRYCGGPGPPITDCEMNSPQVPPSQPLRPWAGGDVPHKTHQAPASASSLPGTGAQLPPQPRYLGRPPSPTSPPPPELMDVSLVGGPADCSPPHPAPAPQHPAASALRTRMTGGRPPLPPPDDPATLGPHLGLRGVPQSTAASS

| Structure (SMILES) | IC50 [1] [nM] | IC50 [2] [nM] | IC50 at 48 h (in vitro) [nM] |
| --- | --- | --- | --- |
| CCN1/C(=C/C(C)=O)Sc2ccc(O)cc21 | 189 |  |  |
| CC(=O)c1nccc2c1[nH]c1ccccc12 | > 10000 |  |  |
| c1ccc(CNc2nc(Nc3cc(C4CC4)[nH]n3)c3sccc3n2)cc1 | 1270 | 1140 |  |
| c1ccc(-c2ccc3[nH]ncc3c2)cc1 | 350 | 53.5 |  |
| COc1cc(N2CCN(C)CC2)ccc1Nc1nccc(-c2cn(C)c3cnccc23)n1 | 17.9 | 8.3 |  |
| O=C(O)c1nc2ccccc2c2[nH]c3c(I)cccc3c12 | 4410 | 7.7 |  |
| Cc1ccc([N+](=O)[O-])cc1S(=O)(=O)N(C)/N=C/c1cnc2ccc(Br)cn12 | 3.7 | 3.4 |  |
| COc1ccc2c3ccnc(Cl)c3n(CC#N)c2c1 | 185 | 38.4 |  |
| COc1ccc(/C=C2\SC(=S)NC2=O)cc1C#C[Si](C)(C)C | > 10000 |  |  |
| Oc1ccc(-c2cnc3[nH]cc(-c4ccc(F)cc4)c3c2)cc1O | 56.8 | 64.4 |  |
| Cc1cccc(N(C)c2nccc(-c3cnn4ncccc34)n2)c1 | 317 |  |  |
| CC(C)Oc1ccc(F)c(-c2cnc(N)c(C(=O)Nc3cnccc3N3CCC[C@@H](C(=O)O)C3)n2)c1 | 5 | 11.9 |  |
| Cn1cc(-c2ccc3occ(-c4cccc(-c5ccncc5)c4)c3n2)cn1 | 1730 |  |  |
| CCN(CC)Cc1ccc(OC)c(-c2cc3c(-c4ccc(C(=O)O)c(C(C)C)c4)ccnc3[nH]2)c1 | 3500 |  |  |
| CN(C)c1nccc(-c2cnn3ncccc23)n1 | 236 |  |  |
| Oc1ccc(-c2n[nH]c3ncc(-c4ccc(O)c(O)c4)cc23)cc1 | 5.9 | 23.9 |  |
| O=C1NC(=Nc2c(Cl)cccc2Cl)S/C1=C\c1ccc2nccnc2c1 | 40.6 | 5.4 |  |
| CN1Cc2nn(C)c(C#N)c2-c2cnc3[nH]c(F)c(c3c2)-c2cn(nc2C(F)(F)F)CCCC1=O | 3010 | 367 |  |
| Cc1cc(C(=O)NC2Nc3cccc(C)c3N2[C@H]2CCCCN(C(=O)/C=C/CN(C)C)C2)ccn1 (stereo not given in full) | > 10000 |  |  |

| Structure (SMILES) | IC50 [1] [nM] | IC50 [2] [nM] | IC50 at 48 h (in vitro) [nM] |
| --- | --- | --- | --- |
| CCNc1cc(Nc2ccc(C(=O)N3CCC(N4CCOCC4)CC3)cc2OC)nc2[nH]cc(C(F)(F)F)c12 | 80.5 | 104 |  |
| COC1=CC2C(=O)NC3=Cc4ccc(OC)cc4C(=C1OC)C32 (stereo not given) | 17.4 | 25.5 |  |
| O=C1Nc2cc(S(=O)(=O)Cc3c(Cl)cccc3Cl)ccc2S/C1=C\c1ccc(O)c([N+](=O)[O-])c1 | 2240 |  |  |
| O=C1NC(NC2CCCCCC2)=N/C1=C\c1ccc2ncsc2c1 |  |  | 10800 |
| O=C(Nc1ccc2[nH]ncc2c1)c1csc(Nc2ccccc2)n1 | 384 | 2800 |  |
| Cn1cc(-c2ccc3cnc(NC(=O)C4CCN(S(C)(=O)=O)CC4)cc3c2)cn1 | 10.1 | 4.8 |  |
| CCOc1ccc2nc(N3CCCN(C(=S)Nc4ccccc4F)CC3)c(C#N)cc2c1 | > 10000 |  |  |
| CN1CCN(C(=O)C(C)(C)c2ccc(C(=O)Cc3cn4cc(-c5ccncc5)ccc4n3)cc2)CC1 | 681 | 364 |  |
| COc1ccc2sc(-c3cncc(NC(C)=O)c3)nc2c1 | 1730 | 405 |  |
| CC(C)CN1CCC(C(=O)Nc2cc3cc(-c4cnn(C)c4)ccc3cn2)CC1 | 15.2 | 9.7 |  |
| CCN1CCN(Cc2ccc(Nc3ncc(F)c(-c4cc(F)c5nc(C)n(C(C)C)c5c4)n3)nc2)CC1 [ABEMACICLIB] | 3.5 | 12.8 |  |
| CC(C)(c1ccc(O)cc1)c1ccc(O)cc1 [BISPHENOL A] | > 10000 |  |  |
| c1cc(OCCN2CCCCC2)cc(-c2n[nH]c3ccc(-c4nc[nH]n4)cc23)c1 [CC-401] | 250 | 218 |  |
| COc1cc(/C=C/C(=O)CC(=O)/C=C/c2ccc(O)c(OC)c2)ccc1O [CURCUMIN] | > 10000 | 148 |  |
| O=c1c2c(O)cc(O)cc2oc2c(O)ccc(O)c12 [DEMETHYLBELLIDIFOLIN] | 268 |  |  |
| O=C(O[C@@H]1Cc2c(O)cc(O)cc2O[C@@H]1c1cc(O)c(O)c(O)c1)c1cc(O)c(O)c(O)c1 [EPIGALOCATECHIN GALLATE] | 714 | > 10000 |  |
| COc1ccc2c(c1)[nH]c1c(C)nccc12 [HARMINE] | 293 | 94 |  |
| COc1cc(CCc2c(O)ccc(O[C@@H]3O[C@H](CO)[C@@H](O)[C@H](O)[C@H]3O)c2C(C)=O)ccc1O [SCORZODIHYDROSTILBENE A] | > 10000 |  |  |
